# Out of some 120,000 compounds screened, about 5,300 (4.4%) were called active. Inconclusive results, whose numbers are uncertain, are shown with a selection of clear calls. The call rests on the fitted dose curve; in most records, active means well fitted inhibition curve with a large enough effect; inconclusive means small, poorly fitted or top-dose-only effect; inactive means no such curve, though single readings can be large or run the other way. Where the call is inconclusive, the potency comes from a doubtful curve fit.
# Assay: qHTS Primary assay for Inhibitors of Plasmodium falciparum Dd2 growth in vitro; further: nearly all actives have a fitted effect of over 65% in size
# Conditions: P. falciparum Dd2 growth, SYBR Green, 72 h; series mostly up to 28.9 µM
# In short: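 Readout: SYBR Green fluorescence, 485 nm excitation, 535 nm emission, after ~16 h lysis at 37C. Before that, Dd2-infected red cells (2.5% hematocrit) grew 72 h with compound, 29 uM top final concentration.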
# Potency means the concentration at half of the fitted maximal effect; tags describe the fitted curve by direction and shape.
row,Compound,Potency
1,O=C(c1n[nH]c(=O)c2ccccc12)N1CCCCCC1c1nnc(-c2ccccc2)o1 (configuration not stated),"inconclusive: 3.16 µM [inhibitor, full curve]"
2,CCCNC(=O)N1CCCC(Cc2ncc(C)n2Cc2ccccc2)C1 (configuration not stated),"inconclusive: 1.58 µM [inhibitor, single point]"
3,CCn1nc(C)c(C(C)NCc2cccc(OC)c2OCCN2CCOCC2)c1C (configuration not stated),"inconclusive: 11.2 µM [inhibitor, single point]"
4,Cc1nn(Cc2ccccc2)c(C)c1[C@@H]1C=C[C@@H](NC(=O)Nc2cccc(C#N)c2)C1,inactive
5,CCOc1ccccc1NC(=O)CN1C(=O)C(c2ccccc2)=NC12CCCCC2,inactive
6,CCC1Oc2ccc(NC(=O)Cc3ccccc3)cc2CN(Cc2ccc3c(c2)OCO3)C1=O (configuration not stated),"inconclusive: 1.41 µM [inhibitor, partial curve]"
7,Cc1ccc(C(=O)NCC2(C)CCOCC2)s1,inactive
8,COc1ccc(NC(=O)CCC2CCN(C(=O)c3ccccc3)CC2)c(OC)c1,inactive
9,O=C(C1CCCC1)N1CCOC[C@H](Oc2ccc(C(F)(F)F)cn2)C1,"inconclusive: 11.2 µM [inhibitor, single point]"
10,Cc1ccc(CNC(=O)CC2CCOCC2)cc1,inactive
11,COCCc1nncn1C1CCN(C(=O)c2cccc(OC(F)(F)F)c2)CC1,inactive
12,COc1cccc(Nc2ncc3c(n2)C(C)(C(=O)NCc2ccc4c(c2)OCO4)CC3)c1 (configuration not stated),"inconclusive: 10 µM [inhibitor, partial curve]"
13,CCOC(=O)c1cnc2c(ccc3ccccc32)c1Nc1ccc(Cl)cc1,"inconclusive: 17.8 µM [inhibitor, single point]"
14,N#Cc1ccc(C(=O)Nc2ccc(-c3nnc4n3CCCC4)cc2)cc1,"inconclusive: 3.55 µM [inhibitor, partial curve, poor fit]"
15,CCCNC(=O)N1CCCCCCNC(=O)[C@@H]2C[C@@H](c3nc(-c4cccnc4)no3)C[C@@H]21,inactive
16,CCOc1ccc(CNC(=O)C2CCCN(S(=O)(=O)N(C)c3ccc(F)cc3)C2)cc1OC (configuration not stated),"inconclusive: 10 µM [inhibitor, single point]"
17,Cn1ncc2c(C(=O)NCc3ccncc3)cc(-c3ccc(F)cc3)nc21,"inconclusive: 8.91 µM [inhibitor, single point]"
18,COc1ccccc1CN1Cc2cc(NC(=O)Cc3ccc(F)cc3)ccc2OC(C)C1=O (configuration not stated),inactive
19,COc1cccc(CC(=O)N[C@@H]2CCC[C@@H](C(=O)NCc3cc(F)cc(F)c3)CC(=O)N(C)C2)c1,"inconclusive: 5.62 µM [inhibitor, single point]"
20,Cc1ccccc1[C@H]1C[C@@H](O)[C@@H](O)[C@@H]1NC(=O)c1cccnc1,inactive
21,Cc1nc(-c2c3n(c(=O)n(CC(=O)NCc4ccc(F)cc4)c2=O)CCCC3)no1,inactive

row,Compound,Potency
1,O=C(Nc1ccc2n(c1=O)C[C@H]1C[C@@H]2CN(Cc2ccc(F)cc2)C1)c1cccs1,"inconclusive: 1.26 µM [inhibitor, full curve, poor fit]"
2,OC1(CN2CCCCC2)CCN(Cc2ccc(C(F)(F)F)cc2F)C1 (configuration not stated),"inconclusive: 7.08 µM [inhibitor, partial curve]"
3,CCOc1ccc(C2Cn3nnc(-c4nc(-c5ccc(F)cc5)no4)c3CO2)cc1 (configuration not stated),inactive
4,Cc1cc(C)cc(N2CCC(NC(=O)c3ccc(Br)o3)C2=O)c1 (configuration not stated),"inconclusive: 3.98 µM [inhibitor, full curve]"
5,COc1cccc(C(=O)N2CCC(N3C[C@H](O)C[C@H]3C(=O)NCc3ccc(C)cc3)CC2)c1,"inconclusive: 12.6 µM [inhibitor, single point]"
6,COc1cc2c(cc1OCc1ccncc1)NC(=O)C21CCN(Cc2ccccn2)CC1,"inconclusive: 15.8 µM [inhibitor, single point]"
7,Cc1cccc(C)c1NC(=O)Cn1c(=O)n(Cc2ccco2)c(=O)c2ccc(C(=O)NC3CCCC3)cc21,"inconclusive: 20 µM [inhibitor, single point]"
8,O=C(Cc1cccn1-c1cccc(Cl)c1)NCCCN1CCCC1,"inconclusive: 17.8 µM [inhibitor, single point]"
9,O=C(CCc1nc2ccc(Cl)cc2[nH]1)N1CCCC(Cc2nc(C3CCOCC3)no2)C1 (configuration not stated),"inconclusive: 2.24 µM [inhibitor, partial curve, poor fit]"
10,O=C(NCc1cccnc1)[C@@H]1C[C@@H](O)CN1C1CCN(C(=O)COc2ccccc2)CC1,inactive
11,CN1c2cc(C(=O)Nc3cccc(OC(F)(F)F)c3)ccc2C(=O)N2CCCC21 (configuration not stated),inactive
12,Cc1cc(-c2cc3c(cn2)CN(Cc2c[nH]c4ccccc24)CCN3)ccn1,"inconclusive: 22.4 µM [inhibitor, single point]"
13,CC1=C[C@@H](CN(C)CCc2ccccn2)[C@H](C(C)C)C[C@H]1Cc1nnc(-c2ccccc2F)o1,"inconclusive: 1.26 µM [inhibitor, partial curve, poor fit]"
14,Cc1nc(NC2CCCCC2)ncc1C(=O)O,inactive
15,Cn1nccc1C(=O)N1CCCC(c2nnnn2C)C1 (configuration not stated),inactive
16,CC(C)N1CCN(C(=O)C2N(C(C)C)C(=O)C23CCCC3)CC1 (configuration not stated),"inconclusive: 8.91 µM [inhibitor, single point]"
17,COCCc1noc(CC2CCOC3(CCN(Cc4cccc(OC)c4OC)CC3)C2)n1 (configuration not stated),"inconclusive: 12.6 µM [inhibitor, single point]"
18,CC(=O)c1ccc(NC(=O)NC[C@H]2C[C@@H]3CCN2C[C@@H]3CN2CCN(c3ncccn3)CC2)cc1,inactive
19,CN1CCCCCC(O)c2cc(C(=O)NCCc3ccccn3)ccc21 (configuration not stated),"inconclusive: 17.8 µM [inhibitor, single point]"
20,Cn1c(C(=O)NC(C)(C)C)cc2c1CCN(Cc1ccc(F)cc1)C2,"inconclusive: 1.26 µM [inhibitor, full curve, poor fit]"
21,COCc1ccc2c(c1)c(OC(C)(C)C(=O)Nc1ccccn1)nn2Cc1cccc(OC)c1,"inconclusive: 7.94 µM [inhibitor, partial curve, poor fit]"

# Source: PubChem BioAssay AID1347417 (National Center for Advancing Translational Sciences (NCATS), 2020)
